Lines with a small IC50 respond at low doses; a fit beyond the top or the lowest dose is shown as a bound at that dose. The AUC spans the tested range (256-fold, ending at the top dose) of the same fit; values near 1 show little effect. For some assays here: Where the top dose is marked as inferred, it was derived from the fitted curves, not read from the paper.
Tests used:
Test in all cases: Viability of human cancer cell lines after 72 h of drug (GDSC screen)
XMD15-27 = compound: C=CC(=O)Nc1ccc(C(=O)c2sc(Nc3ccc(N4CCN(C)CC4)cc3OC)nc2N)cc1 [XMD15-27]; conditions: top dose 10.24 µM; top dose inferred
Experimental: (§1)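 Human cancer cell lines in 384-well plates, medium with 10% serum, drug for 72 h over a 256-fold dose range (nine 2-fold or five 4-fold steps up to the top dose). Adherent lines were fixed and stained with the nucleic acid dye Syto60, suspension lines read with resazurin; signal relative to control wells, capped at 0 and 100%. One two-parameter sigmoid per drug and line, fitted in a mixed model over all curves with the slope shared within a line.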

Temsirolimus = compound: CO[C@H]1C[C@@H]2CC[C@@H](C)[C@@](O)(O2)C(=O)C(=O)N2CCCC[C@H]2C(=O)O[C@H]([C@H](C)C[C@@H]2CC[C@@H](OC(=O)C(C)(CO)CO)[C@H](OC)C2)CC(=O)[C@H](C)/C=C(\C)[C@@H](O)[C@@H](OC)C(=O)[C@H](C)C[C@H](C)/C=C/C=C/C=C/1C [Temsirolimus]; conditions: top dose 0.2 µM
Experimental: as §1

SL 0101-1 = compound: CC(=O)O[C@@H]1[C@@H](OC(C)=O)[C@@H](O)[C@H](Oc2c(-c3ccc(O)cc3)oc3cc(O)cc(O)c3c2=O)O[C@H]1C [SL 0101-1]; conditions: top dose 10 µM; top dose inferred
Experimental: as §1

| Cell Line | AUC (XMD15-27) | IC50 (XMD15-27) [nM] | AUC (Temsirolimus) | IC50 (Temsirolimus) [nM] | AUC (SL 0101-1) | IC50 (SL 0101-1) [nM] |
| --- | --- | --- | --- | --- | --- | --- |
| BE2-M17 (neuroblastoma, adherent) | 0.987 | > 10200 | 0.847 | 154 | 0.983 | > 10000 |
| BFTC-905 (bladder, adherent) | 0.989 | > 10200 | 0.899 | 191 | 0.947 | > 10000 |
| BHT-101 (thyroid, adherent) | 0.985 | > 10200 | 0.781 | 85.7 | 0.973 | > 10000 |
| BICR10 (head and neck, adherent) | 0.975 | > 10200 | 0.603 | 25.1 | 0.983 | > 10000 |
| BICR22 (head and neck, adherent) | 0.983 | > 10200 | 0.492 | 11.8 | 0.968 | > 10000 |
| BICR78 (head and neck, adherent) | 0.983 | > 10200 | 0.8 | 115 | 0.975 | > 10000 |
| EW-22 (Ewing sarcoma, adherent) |  |  | 0.841 | 131 | 0.979 | > 10000 |
| GA-10 (Burkitt lymphoma, suspension) |  |  | 0.231 | 2.44 | 0.984 | > 10000 |
| HCC202 (breast, adherent) |  |  | 0.973 | > 200 | 0.975 | > 10000 |
| IGROV-1 (ovary, adherent) |  |  | 0.878 | > 200 | 0.977 | > 10000 |
| IM-9 (myeloma, suspension) |  |  | 0.992 | > 200 | 0.991 | > 10000 |
| JEKO-1 (B-cell lymphoma, suspension) |  |  | 0.455 | 9.48 | 0.938 | > 10000 |
| JHOS-4 (ovary, adherent) |  |  | 0.895 | > 200 | 0.976 | > 10000 |
| JHU-029 (head and neck, adherent) |  |  | 0.638 | 33 | 0.98 | > 10000 |
| Jurkat (T-cell leukaemia, suspension) |  |  | 0.965 | > 200 | 0.991 | > 10000 |
| KARPAS-1106P (B-cell lymphoma, suspension) |  |  | 0.308 | 4.04 | 0.971 | > 10000 |
| KATOIII (stomach, semi-adherent) |  |  | 0.88 | 176 | 0.988 | > 10000 |
| KNS-62 (lung squamous cell carcinoma, adherent) |  |  | 0.618 | 30.5 | 0.945 | > 10000 |
| KP-1N (pancreas, adherent) |  |  | 0.662 | 36 | 0.981 | > 10000 |
| LB647-SCLC (small cell lung carcinoma, semi-adherent) |  |  | 0.967 | > 200 | 0.927 | > 10000 |
| MEL-HO (melanoma, adherent) |  |  | 0.564 | 18.7 | 0.984 | > 10000 |
| MHH-CALL-2 (B-cell leukaemia, suspension) |  |  | 0.887 | 123 | 0.995 | > 10000 |
| MKN7 (stomach, adherent) |  |  | 0.876 | > 200 | 0.982 | > 10000 |
| MM1S (myeloma, suspension) |  |  | 0.566 | 18.8 | 0.968 | > 10000 |

| Cell Line | AUC (XMD15-27) | IC50 (XMD15-27) [nM] | AUC (Temsirolimus) | IC50 (Temsirolimus) [nM] | AUC (SL 0101-1) | IC50 (SL 0101-1) [nM] |
| --- | --- | --- | --- | --- | --- | --- |
| MOLM-16 (acute myeloid leukaemia, suspension) |  |  | 0.858 | 133 | 0.974 | > 10000 |
| MOLT-16 (T-cell lymphoblastic leukaemia, suspension) |  |  | 0.119 | 1.14 | 0.99 | > 10000 |
| NCC010 (kidney, adherent) |  |  | 0.853 | 174 | 0.986 | > 10000 |
| NCI-H146 (small cell lung carcinoma, suspension) |  |  | 0.946 | > 200 | 0.987 | > 10000 |
| NCI-H508 (large intestine, semi-adherent) |  |  | 0.833 | > 200 | 0.902 | > 10000 |
| NCI-H835 (lung carcinoid, suspension) |  |  | 0.961 | > 200 | 0.982 | > 10000 |
| NCI-H929 (myeloma, suspension) |  |  | 0.512 | 13.4 | 0.955 | > 10000 |
| NCI-H1105 (small cell lung carcinoma, suspension) |  |  | 0.94 | > 200 | 0.988 | > 10000 |
| NCI-H1341 (small cell lung carcinoma, suspension) |  |  | 0.922 | > 200 | 0.991 | > 10000 |
| NCI-N87 (stomach, adherent) |  |  | 0.755 | 97.4 | 0.965 | > 10000 |
| OCI-LY7 (B-cell lymphoma, suspension) |  |  | 0.112 | 1.34 | 0.983 | > 10000 |
| PWR-1E (prostate, adherent) |  |  | 0.895 | > 200 | 0.986 | > 10000 |
| RCH-ACV (B-cell leukaemia, suspension) |  |  | 0.741 | 52.4 | 0.992 | > 10000 |
| RH-18 (rhabdomyosarcoma, adherent) |  |  | 0.925 | > 200 | 0.976 | > 10000 |
| SCC90 (head and neck, adherent) |  |  | 0.932 | > 200 | 0.981 | > 10000 |
| SK-GT-2 (stomach, adherent) |  |  | 0.685 | 42.5 | 0.986 | > 10000 |
| SK-MEL-31 (melanoma, adherent) |  |  | 0.885 | > 200 | 0.985 | > 10000 |
| STS-0421 (soft tissue, adherent) |  |  | 0.825 | 147 | 0.983 | > 10000 |
| SUP-B8 (B-cell leukaemia, suspension) |  |  | 0.502 | 12.7 | 0.989 | > 10000 |
| TC-YIK (cervix, suspension) |  |  | 0.96 | > 200 | 0.991 | > 10000 |
| U-266 (myeloma, semi-adherent) |  |  | 0.703 | 57.9 | 0.975 | > 10000 |
| VMRC-LCD (lung adenocarcinoma, adherent) |  |  | 0.896 | 175 | 0.993 | > 10000 |
| ZR-75-30 (breast, adherent) |  |  | 0.887 | > 200 | 0.982 | > 10000 |

Source: the supplement of paper PMC4967469
